# In the supplement of paper PMC4166925:
# ± gives the standard deviation of the averaged measurements. Whole data set: some 33,000 sequences, median “E-score (dimensionless, -0.5 to 0.5)” near -0.049, cut for the highest 2% near 0.37. Some of the results follow.
# Test system: T1, PmTbr T-box DNA-binding domain (GST fusion)
# T1 sequence: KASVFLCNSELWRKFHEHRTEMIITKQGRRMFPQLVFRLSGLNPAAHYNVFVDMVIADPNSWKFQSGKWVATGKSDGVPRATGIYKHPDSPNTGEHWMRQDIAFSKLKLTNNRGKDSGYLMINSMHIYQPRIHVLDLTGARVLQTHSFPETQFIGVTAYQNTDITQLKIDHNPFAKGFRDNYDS
# Experiment: PBM E-score of 8-mer (E-score (dimensionless, -0.5 to 0.5)); Tbr is Tbrain of the sea star Patiria miniata (Pm) or the sea urchin Strongylocentrotus purpuratus (Sp); higher = stronger binding preference; most listed sequences are background and not binding sites
# Details: the construct has about 5 more residues each side
# Summary of the method: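 Each ungapped 8-mer received an enrichment E-score from the Universal PBM Analysis Suite, averaged over duplicate arrays. The proteins were Tbr T-box DNA-binding domains, covering the whole T-box plus about five flanking residues, fused to GST and expressed in BL21 E. coli at 20 °C before glutathione affinity purification. Universal Agilent oligonucleotide arrays were made double-stranded by primer extension and incubated with 200 nM protein in PBS (pH 7.5). The arrays were then scanned and quantified, and every 8-mer was scored from probe intensities.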
row,Sequence,PBM E-score of 8-mer
1,ACTTTAAC,-0.0192 ± 0.073
2,CAGTTGTA,-0.0126 ± 0.037
3,CGTCAATC,0.128 ± 0.052
4,ATATCCCA,-0.0578 ± 0.0039
5,AGAAGTAG,-0.186 ± 0.068
6,TACCCCGA,-0.0567 ± 0.03
7,GTACAAAA,-0.112 ± 0.013
8,ACTCAAGG,-0.0737 ± 0.044
9,CAACGTTC,-0.0494 ± 0.042
10,ATTTCACC,0.167 ± 0.058
11,CTTTCCTA,-0.235 ± 0.075
12,AGGTTGGA,-0.251 ± 0.0084
13,ATCGTGTG,0.217 ± 0.027
14,CTGTTGAA,-0.0551 ± 0.1
15,CCGTTGAC,0.207 ± 0.0037
16,ACCGTCTC,0.0641 ± 0.047
17,ACACCTAC,0.4763 ± 0.0017
18,ACCGACCA,-0.163 ± 0.05
19,ATCAAGGA,-0.254 ± 0.0053
20,AAAGATCA,-0.284 ± 0.037
21,ATGTAAAA,-0.21 ± 0.0095
22,CCTTTCCC,-0.132 ± 0.071

row,Sequence,PBM E-score of 8-mer
1,CCATCTCG,-0.0242 ± 0.099
2,CTGGTGTA,0.0817 ± 0.037
3,ACGATTGG,-0.125 ± 0.048
4,AGGGAGCG,-0.0241 ± 0.0087
5,ATGCCTTC,0.0114 ± 0.064
6,AGCGGTTA,0.0631 ± 0.03
7,ATATTCAT,-0.155 ± 0.012
8,CATACCGG,-0.0513 ± 0.024
9,AAAATCAG,-0.213 ± 0.033
10,ATGGATTG,-0.167 ± 0.075
11,CTCTTATC,-0.041 ± 0.029
12,CTTATCAA,0.0425 ± 0.075
13,CAAGGTAA,0.00125 ± 0.13
14,AGTACTAC,-0.315 ± 0.0088
15,GCTCTACA,-0.0571 ± 0.083
16,GGCTGGCA,-0.0305 ± 0.044
17,AGAGAAGC,-0.183 ± 0.09
18,AACCATCA,0.0805 ± 0.034
19,ATTCATAC,-0.137 ± 0.06
20,CTAAAAAA,0.03 ± 0.11
21,ATGAGTGC,-0.0415 ± 0.029
22,ATGCAAAT,-0.138 ± 0.073

row,Sequence,PBM E-score of 8-mer
1,GATTTTAA,-0.118 ± 0.047
2,ACAACAGG,0.165 ± 0.024
3,ACGATCTC,0.00949 ± 0.1
4,AAGAAAAC,-0.0889 ± 0.032
5,ATATCGAA,-0.109 ± 0.03
6,ATACGGAC,-0.0726 ± 0.013
7,CCTGGTTC,-0.0768 ± 0.014
8,CTATGTCC,-0.172 ± 0.017
9,AAGGTTCT,-0.0302 ± 0.087
10,CGCGAATA,0.327 ± 0.045
11,CAGAAATC,-0.01 ± 0.051
12,CAGACGTC,-0.134 ± 0.089
13,ACCCACAG,-0.00239 ± 0.035
14,CGATTTTA,-0.119 ± 0.058
15,CCGTGAAC,0.257 ± 0.04
16,AGAAAATC,0.13 ± 0.048
17,ACGATTTC,0.115 ± 0.0049
18,AGATCGAT,-0.271 ± 0.024
19,CAGCGGGA,-0.0262 ± 0.032
20,AGTCTCTG,-0.167 ± 0.028
21,ATCAAGTC,0.00964 ± 0.031
22,ACACACCG,0.125 ± 0.027

row,Sequence,PBM E-score of 8-mer
1,AGGAAAAA,-0.178 ± 0.041
2,GCCGCAAA,-0.108 ± 0.029
3,ACCCTAAA,-0.16 ± 0.096
4,TATTAGAA,-0.185 ± 0.04
5,GTATACTA,-0.0229 ± 0.037
6,ACCATGGG,-0.0421 ± 0.047
7,GCAGGTAC,-0.114 ± 0.022
8,CCCATGGG,-0.214 ± 0.016
9,AGAAGCAT,-0.357 ± 0.036
10,CGTAATGC,-0.1853 ± 0.00019
11,AATACCTA,-0.143 ± 0.061
12,TCAAGAAA,-0.17 ± 0.11
13,ATGCTACC,-0.139 ± 0.057
14,CGCTACAG,0.0997 ± 0.07
15,AAAGCGAT,-0.0541 ± 0.086
16,GAGAAAAA,0.109 ± 0.069
17,CACCAAGG,0.154 ± 0.024
18,TCCGGTAA,-0.111 ± 0.014
19,GGAAAAAA,-0.135 ± 0.051
20,CAAGACGC,-0.027 ± 0.058
